Measurements taken from the supplement of paper PMC10126150.
Sequences with one replicate were seen in a single cluster, so their values are uncertain.

Tested on: ATP
Assay: switch fluorescence ratio, 500 uM ATP over buffer (Cy3 cluster intensity, sum of 5 cycles each) (fold (ratio)); higher = stronger signal-on switching upon ATP binding; sequences stand for … in TCGTCGGCAGCGTCAGATGTGTATAAGAGACAGTTTTTTTTTTTTTTTTTTTTTTTTT…TC
Settings: aptamer strand: ATP DNA aptamer (quencher-CACCTGGGGGAGTATTGCGGAGGAAGG + anchor), 100 nM annealed; ATP concentration: 500 uM; one replicate
Procedure, shortened: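 Imaging in selection buffer was followed by imaging after 15 min with 500 uM ATP at 22 °C, for Cy3-labelled switching-strand clusters annealed to 100 nM quencher-labelled ATP aptamer on a modified Illumina MiSeq flow-cell. Five of these buffer/ATP cycles ran, separated by NaOH stripping and re-annealing. The fluorescence ratio per cluster is summed target-cycle over summed buffer-cycle Cy3 intensity, averaged per switch-domain sequence; clusters outside 100-1000 RFU were removed.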
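Further: ATP exposure 15 min at 22 °C before imaging.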

| Sequence | switch fluorescence ratio |
| --- | --- |
| GAGAGAGTCG | 1.02 |
| GAGAGCAAGA | 1.52 |
| GAGAGCCCGT | 1.01 |
| GAGAGTCCGG | 1.03 |
| GAGAGTCTGC | 0.991 |
| GAGATAATTT | 0.994 |
| GAGATAGGTC | 1.03 |
| GAGATATCAA | 0.961 |
| GAGATATGGT | 1 |
| GAGATCCCTA | 1.01 |
| GAGATCGGCA | 0.969 |
| GAGATGCACG | 1.07 |
| GAGATGCCAT | 0.978 |
| GAGATGGGTT | 1.07 |
| GAGATTAAGT | 1 |
| GAGATTATTC | 1.03 |
| GAGATTATTT | 1 |
| GAGATTCAGC | 1.03 |
| GAGATTCGCA | 1.02 |
| GAGCAAAACA | 1.06 |
| GAGCAAATAT | 4.41 |
| GAGCAAGAAT | 1.25 |
| GAGCAAGTT | 1.06 |
| GAGCACAAGG | 1.08 |
| GAGCACGAAG | 0.969 |

| Sequence | switch fluorescence ratio |
| --- | --- |
| GAGCACGGAG | 0.961 |
| GAGCATCCG | 1.08 |
| GAGCATTAAC | 1.41 |
| GAGCCGGCTA | 0.951 |
| GAGCCGGTTC | 0.974 |
| GAGCCTATTG | 1 |
| GAGCCTGGAT | 1.01 |
| GAGCGAGAGT | 0.992 |
| GAGCGCCTTA | 1.03 |
| GAGCGCTTCG | 0.967 |
| GAGCGGCAGA | 0.992 |
| GAGCGGCATG | 1.01 |
| GAGCGTAAAA | 0.983 |
| GAGCGTTGTT | 1.02 |
| GAGCTAGCGG | 1.01 |
| GAGCTCAGA | 0.975 |
| GAGCTCGTAG | 1.01 |
| GAGCTGAAAT | 0.997 |
| GAGGACAGTT | 0.969 |
| GAGGACATAT | 1.02 |
| GAGGACCAGG | 1.04 |
| GAGGACCTCA | 0.994 |
| GAGGACGAAC | 1 |
| GAGGACTAAT | 1.01 |
| GAGGCAAGCC | 1.13 |

| Sequence | switch fluorescence ratio |
| --- | --- |
| GAGGCAAGCG | 1.15 |
| GAGGCCGCAG | 2.94 |
| GAGGCCTAGT | 0.975 |
| GAGGCGTACA | 1.02 |
| GAGGCGTTA | 0.971 |
| GAGGCTGGAG | 0.962 |
| GAGGCTTTCC | 1.06 |
| GAGGCTTTTG | 1.02 |
| GAGGGACGGA | 0.997 |
| GAGGGACTTT | 1.01 |
| GAGGGAGTCT | 1.05 |
| GAGGGCATCG | 0.979 |
| GAGGGCCACC | 1.1 |
| GAGGGCCCAA | 0.991 |
| GAGGGCGTAT | 1.01 |
| GAGGGCTTTC | 1.05 |
| GAGGGGCGAG | 1.01 |
| GAGGGGGCAG | 1.01 |
| GAGGGGGTTA | 0.959 |
| GAGGGTGAAG | 1 |
| GAGGTATCTA | 0.99 |
| GAGGTCGTAC | 1.01 |
| GAGGTGAATA | 1.55 |
| GAGGTTCGAA | 1 |
| GAGGTTGAAC | 0.915 |

| Sequence | switch fluorescence ratio |
| --- | --- |
| GAGGTTGTTG | 0.999 |
| GAGGTTTAAC | 0.995 |
| GAGTAACTCT | 1.01 |
| GAGTAAGAAC | 0.972 |
| GAGTAAGTTC | 1.01 |
| GAGTAATTCC | 0.996 |
| GAGTAATTTC | 1.06 |
| GAGTACCGGC | 0.943 |
| GAGTACTCAT | 0.99 |
| GAGTACTCCG | 1.03 |
| GAGTACTCGA | 1.02 |
| GAGTACTTTA | 1.02 |
| GAGTATGGTC | 0.999 |
| GAGTCCCCGT | 1.01 |
| GAGTCCTGTG | 1.03 |
| GAGTCCTTAA | 1.03 |
| GAGTCGAATG | 1.03 |
| GAGTCGATGG | 0.989 |
| GAGTCGCGAG | 1.11 |
| GAGTCTGGAT | 1.05 |
| GAGTCTGTAC | 1.03 |
| GAGTCTGTCA | 0.983 |
| GAGTCTTCTT | 1.02 |
| GAGTGAGCTA | 0.967 |
| GAGTGATGAG | 1.03 |
